Inconclusive means that the source gave no clear call. Such entries were picked first, then a sample of the others. Potencies of inconclusive entries are doubtful fits and often do not repeat. Calls of active or inactive are those of the source. Calls come from the whole dose curve; as a rule, active = well fitted inhibition curve with a large enough effect; inconclusive = small, poorly fitted or top-dose-only effect, or effect the other way; inactive = flat fitted curve, though single readings scatter.
Experiment: qHTS for Inhibitors of Plasmodium falciparum (GB4) proliferation (AID 504315); note: nearly all actives have a fitted effect of over 50% in size;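 for activity change, negative = inhibition: 0% = DMSO vehicle and -100% = 0.29 µM artemisinin control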
Details: P. falciparum GB4 in erythrocytes, SYBR Green DNA, 72 h; activity change, negative = inhibition: at 6.7 µM (top of the series)
Procedure, shortened: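 Erythrocytes infected with P. falciparum line (0.3% parasitemia, 2.5% hematocrit final) incubated with compounds 72 h at 37 °C, 5% CO2; SYBR Green lysis buffer added, fluorescence read next day. Normalized to 0.29 uM artemisinin and DMSO.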
Potency is the fitted concentration of half-maximal effect; tags give direction and shape of the fitted curve.

Activity change, negative = inhibition, inactive:
COC(=O)[C@@]1(Cc2ccccc2-c2ccco2)C=C[C@H](C)[C@@H](c2ccccc2)N1C(=O)C(F)(F)F -0.424%, O=P1(O)Oc2c(c(-c3ccccc3)cc3ccc4ccccc4c23)-c2c(-c3ccccc3)cc3ccc4ccccc4c3c2O1 8.22%, COC(=O)C12CC3(CCC4C5C(C(OCc6ccccc6)C41)C52)OCCO3 (centres undefined) 4.74%

Potency, inconclusive:
CC(=O)[C@H]1[C@H](CCc2ccccc2)NC(=O)N(Cc2ccccc2)[C@@H]1C 0.4 nM [activator], COC(=O)N1C(/C=C/c2ccc3c(c2)OCO3)=Cc2ccccc2C1CC(C)=O (centres undefined) 3010 nM [inhibitor, single point], COC(=O)[C@H]1[C@H](CCc2ccccc2)NC(=O)N(Cc2ccccc2)[C@H]1C 60.1 nM [activator, full curve, poor fit], CCOC(=O)CN1C(=O)N[C@@H](CCc2ccccc2)[C@H](C(C)=O)[C@H]1C 757 nM [activator, full curve, poor fit], CCCCC1=CC2=CC(=O)C(C)(OC(=O)CC)C(=O)C2=CN1CCOC (centres undefined) 53.6 nM [activator, partial curve, poor fit]

Potency, inactive:
C[C@H]1Cc2c(-c3ccccc3)nc3c(c2CO1)CN(S(=O)(=O)c1ccc(Cl)c2nonc12)CC3

Source: PubChem BioAssay (NCATS)
